In the RNAGym collection of RNA variant scans (doi:10.7554/elife.90254):
Read counts are not given, so values of variants with three or more changes are uncertain.

B1: LINE1-full (parent)
chain: UACGUAGGUGGUUUUCCCCUGAUAGUGCUAAGGGGGCCUGGAAGUUUGGACUGGGCAGAGCUCAACACAGCGUGGCAAAGUGGCUGUGGCUAGACUGCCUCUCUGGAUUCCUCGUCACUCAGCAGGGCAUCUCUGAGAGAAAUGCC

Variants of: B1
Assay: self-cleavage, relative activity (ratio to wild type); higher = more cleavage; in vitro, sequencing; the parent is a self-cleaving ribozyme
Variant U73C A79G A121U has a self-cleavage of 0.4. U73C A79G A142G gave a self-cleavage of 1.35. For U73C A79G U132A, the self-cleavage was 1.34. Work on U73C A79U U96A yielded a self-cleavage of 0.07. U73C A92U A136G gave a self-cleavage of 2.69. With U73C A94U U104C the self-cleavage was 0.98. U73C A117U A142G showed a self-cleavage of 2.03. With U73C A121G A141U the self-cleavage was 2.3. U73C A124G A138G gave a self-cleavage of 0.64. U73C C76U A94G G105A G139U showed a self-cleavage of 0.47. In the case of U73C C84A A141G, the self-cleavage is reported as 0.07. Work on U73C C95U A141G yielded a self-cleavage of 0.04. U73C C99A A140G showed a self-cleavage of 0.84. With U73C C128U A136G the self-cleavage was 2.16. U73C G74U U85A A124G showed a self-cleavage of 0.08. For U73C G82U U85A, the self-cleavage was 0.24. U73C G83A A136G gave a self-cleavage of 2.14. U73C G86A A140G gave a self-cleavage of 0.1. For U73C G89A G114A, the self-cleavage was 0.01. For U73C G89A U108C U115C, the self-cleavage was 0. In the case of U73C G89A U132C, the self-cleavage is reported as 0.05. Work on U73C U81A U108C G127U U132C A140G yielded a self-cleavage of 1.31. U73C U81G G125A gave a self-cleavage of 1.85. In the case of U73C U85A A124G, the self-cleavage is reported as 0. With U73C U85C U100C the self-cleavage was 0. U73C U85C U102C A140G A142G showed a self-cleavage of 1.31. Variant U73C U87C C145A has a self-cleavage of 0. Work on U73C U91A U96C A141G yielded a self-cleavage of 0. With U73C U91C C128A the self-cleavage was 0.25. Work on U73C U96A A117G yielded a self-cleavage of 0.21. Variant U73C U96A A121G has a self-cleavage of 0.14. U73C U96A C103A gave a self-cleavage of 0.06. In the case of U73C U96C C103U A141G, the self-cleavage is reported as 0.19. U73C U102C U104A A140G gave a self-cleavage of 1.84. Work on U73C U112C A129U yielded a self-cleavage of 1.84. Work on U73C U119C U134G yielded a self-cleavage of 1.53. With U73G A79G U85A the self-cleavage was 0.2. With U73G A107U U132A the self-cleavage was 2.11. Variant U73G G93A A141G has a self-cleavage of 0.01. U73G U81A U130C showed a self-cleavage of 2.59. Variant U73G U104C U108A has a self-cleavage of 1.31. Work on G74A A77U U104C U108C yielded a self-cleavage of 1.64. With G74A A107G A117G A136G the self-cleavage was 1.04. With G74A A107G U134C A142G the self-cleavage was 1.56. For G74A U81G G83A, the self-cleavage was 0.91. In the case of G74A U102C U132C, the self-cleavage is reported as 1.2. G74A U108C A129U gave a self-cleavage of 1.04. In the case of G74A U115C A117G, the self-cleavage is reported as 1.97. For G74C G122A U132A, the self-cleavage was 1.64. G75A A79U U115C A121U A140G showed a self-cleavage of 1.74. Work on G75A G114A A129G A142C yielded a self-cleavage of 1.46. In the case of G75A U91C U134C, the self-cleavage is reported as 0.96. G75A U112C U132A showed a self-cleavage of 1.57. Work on G75C A79G U85A yielded a self-cleavage of 0.06. Variant G75C G82A U91C has a self-cleavage of 0.11. In the case of G75C U81C U132C, the self-cleavage is reported as 0. G75C U85A U143C showed a self-cleavage of 0.1. For G75U G89A A138U, the self-cleavage was 0.01. Work on G75U U104C U112C yielded a self-cleavage of 0. Variant C76A U109C U134C has a self-cleavage of 1.92. For C76G U115C A117G, the self-cleavage was 2.3. In the case of C76U A77G U130A, the self-cleavage is reported as 2.98. Work on C76U A78G A79G yielded a self-cleavage of 2.2. Work on C76U A79G U85C A117G yielded a self-cleavage of 0.9. C76U A94G U112G gave a self-cleavage of 0. Work on C76U A107C U134C yielded a self-cleavage of 2.94. C76U U85C U102C A138G gave a self-cleavage of 0.1. C76U U102C U119A showed a self-cleavage of 2.45. Variant A77C C123U U132C A140G has a self-cleavage of 1.04. Variant A77C G127A A129G has a self-cleavage of 1.13. Work on A77C U109C U130A yielded a self-cleavage of 1.16. Variant A77G A78G U100A has a self-cleavage of 0.39. A77G A94G U100A showed a self-cleavage of 0.18. A77G A117U A140G showed a self-cleavage of 1.07. A77G A121G A124G gave a self-cleavage of 0.26. For A77G A129U A138U, the self-cleavage was 1.31. In the case of A77G A136U A141U, the self-cleavage is reported as 1.98. A77G A142G G144A showed a self-cleavage of 1.22. In the case of A77G C90U A107G, the self-cleavage is reported as 0.1. In the case of A77G C101U A136G, the self-cleavage is reported as 2.99. A77G G80A A107G A124G showed a self-cleavage of 2.25. In the case of A77G G88A U104C, the self-cleavage is reported as 0.24. A77G G89A A107U A136G showed a self-cleavage of 0.09. For A77G G93U A117U A142G, the self-cleavage was 0.02. With A77G U81C C99U the self-cleavage was 1.13. A77G U85A U104C showed a self-cleavage of 0.13. For A77G U85C A136G, the self-cleavage was 0. A77G U87A A136G gave a self-cleavage of 0. With A77G U96A G125U the self-cleavage was 0.06. A77G U96A U115C showed a self-cleavage of 0.11. Work on A77G U96A U143C yielded a self-cleavage of 0.05. In the case of A77G U100C A107U, the self-cleavage is reported as 2.76. A77G U109C A140U gave a self-cleavage of 1.31. With A77G U115A U130A the self-cleavage was 1.84. For A77G U119G A136G, the self-cleavage was 0.84. Work on A77G U130C A142G yielded a self-cleavage of 2.18. A77G U132C A141G showed a self-cleavage of 1.11. A77U A78G A141G showed a self-cleavage of 1.17. A77U A94G A129G gave a self-cleavage of 0.37. For A77U A94G A129G U132A, the self-cleavage was 0.46. A77U A94G A138U gave a self-cleavage of 0.22. In the case of A77U A94G U100A, the self-cleavage is reported as 0.11. Work on A77U A94U A140G yielded a self-cleavage of 0.19. Variant A77U A124U A136G has a self-cleavage of 1.11. For A77U G89A U132C, the self-cleavage was 0.06. For A77U U81C C95U, the self-cleavage was 0.24. Work on A77U U81C C146U yielded a self-cleavage of 1.31. For A77U U85A A94G U109C U119C, the self-cleavage was 0. A77U U85C A117G A142G showed a self-cleavage of 0.15. With A77U U85C U87A A129G the self-cleavage was 0.12. With A77U U85C U134A A136G the self-cleavage was 0.18. In the case of A77U U87C C90A U132A, the self-cleavage is reported as 0.02. With A77U U87C U91C U112C the self-cleavage was 0. Work on A77U U91C A129G yielded a self-cleavage of 0.39. For A77U U104A U115C, the self-cleavage was 0.75. With A77U U109C A117U U119C A129G A138G the self-cleavage was 0. A77U U119C A142G gave a self-cleavage of 1.72. A77U U130C U143A gave a self-cleavage of 1.8. With A77U U132A U134A the self-cleavage was 0.41. In the case of A78C A129G U132C A142G, the self-cleavage is reported as 1.9. With A78C G88A A124U the self-cleavage was 0.1. A78C G122C U130A gave a self-cleavage of 2.23. With A78C U100C U112C A138G the self-cleavage was 0.92. A78G A79G A107G U115A gave a self-cleavage of 0.61. In the case of A78G A92G U130C, the self-cleavage is reported as 0.29. For A78G A107G U109A, the self-cleavage was 1.55. For A78G A117C C146U, the self-cleavage was 1.92. A78G A129G U143C showed a self-cleavage of 1.91. With A78G A136U A138G the self-cleavage was 1.29. Work on A78G C95U U108C yielded a self-cleavage of 0.46. A78G C99A A138U showed a self-cleavage of 1.07. Variant A78G C99U U130C has a self-cleavage of 0.63. Variant A78G C101U U134A has a self-cleavage of 1.93. In the case of A78G G86A A107G G126U, the self-cleavage is reported as 0.02. A78G U81A U130C A138G gave a self-cleavage of 0.98. Variant A78G U81C A141G has a self-cleavage of 1.28. A78G U85A C103A showed a self-cleavage of 0.05. A78G U100C A142G showed a self-cleavage of 0.86. A78G U102A A129U showed a self-cleavage of 1.45. For A78G U102C U130C A138G A141G, the self-cleavage was 0. Work on A78G U108C G127A A129G yielded a self-cleavage of 1.17. Work on A78G U119C A138G yielded a self-cleavage of 1.09. Work on A78U A94G A107C yielded a self-cleavage of 0. A78U U85C U119A showed a self-cleavage of 0.27. A78U U85C U119C G144A showed a self-cleavage of 0.18. With A78U U91C U134C A141G the self-cleavage was 1.2. Work on A78U U108C A121G yielded a self-cleavage of 1.62. A78U U115C U119C U130C U132C A138G gave a self-cleavage of 0. In the case of A79C U81A A117U, the self-cleavage is reported as 2.53. In the case of A79C U100C C113G, the self-cleavage is reported as 1.79. Work on A79G A92G U143C yielded a self-cleavage of 0. A79G A94U U100A A140G showed a self-cleavage of 0.16. A79G A107G A117G showed a self-cleavage of 0. A79G A121U U132C gave a self-cleavage of 1.84. In the case of A79G A138G A140U, the self-cleavage is reported as 0.84. In the case of A79G A142G G144A, the self-cleavage is reported as 1.6. A79G C98U A140G gave a self-cleavage of 0.46. In the case of A79G C110U A117U, the self-cleavage is reported as 1.81. Work on A79G C113A A121G yielded a self-cleavage of 1.55. For A79G C128G U130C, the self-cleavage was 1.02. Variant A79G G88A A124G A142G has a self-cleavage of 0.06. In the case of A79G G97C U108C A124U A140G, the self-cleavage is reported as 0.76. In the case of A79G G114U U115C, the self-cleavage is reported as 1.11. In the case of A79G G127C A140G, the self-cleavage is reported as 2.55. In the case of A79G U81A A129U, the self-cleavage is reported as 1.77. A79G U81A C110A gave a self-cleavage of 1.76. A79G U81A U104C gave a self-cleavage of 1.97.
